One compound from US4065570A (priority 1975, dated 1977) can be followed below.

The test system of the assay is Coxsackie B3. The assay can be described thus: microbe, parasite or virus in culture.

SMILES strings stand for the structures. “And” between values parts separate entries of the source, which are not always exact repeats. Equal values may be shown once.

As for `COc1ccc(C=C2C(=O)N(C(C)=O)C(=O)N2C(C)=O)cc1OC` [Example 32, N,N-diacetylated 5-(3',4'-dimethoxybenzal) hydantoin], the “% Inhibition” value (1 μg/ml) was 50% and 75%. The compound further registered an inhibition at 5 µg/mL (Enterovirus B, B3, Vero, 5 μg/ml) of 97%. For the same compound, where the note is “Enterovirus B, B3, Vero, 10 μg/ml”, the inhibition at 10 µg/mL came out at 100%. This compound also gave an inhibition at 50 µg/mL (Enterovirus B, B3, Vero, 50 μg/ml) of 100%.
